Test results: PubChem BioAssay AID924 (National Center for Advancing Translational Sciences (NCATS), 2007)
About 1,200 (0.92%) of roughly 130,000 compounds were called active. The inconclusive results got no clear call from the source; some entries with a clear call stand among them for comparison. The call rests on the fitted dose curve; in most records, active means well fitted cell-killing curve with a large enough effect; inconclusive means small, poorly fitted or top-dose-only effect; inactive means no such curve, though single readings can be large or run the other way. Potencies beside an inconclusive call are fits to weak or partial responses and may not hold up.

Experiment: qHTS Screen for Compounds that Selectively Target Cancer Cells with p53 Mutations: Cytotoxicity of p53ts Cells at the Permissive Temperature; further: nearly all actives have a fitted effect of over 55% in size
Conditions: H1299-p53A138V at 32C, ATP luminescence viability, 24 h; series mostly up to 46.1 µM
Procedure, shortened: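 Viability by ATPlite luminescence after 24 h compound treatment (up to 46 uM) at the permissive 32C. Cells are H1299 carrying p53 A138V. Scale runs from DMSO basal to 100 uM tamoxifen as full kill; AC50 from Hill fits.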
Potency means the concentration at half of the fitted maximal effect; tags describe the fitted curve by direction and shape.

SMILES	Potency
c1coc(C2Nc3ccccc3-c3nc4ccccc4n32)c1 (stereo not given)	inactive
Nc1c(C(=O)Nc2ccc(Cl)cc2F)sc2nc(-c3cccs3)ccc12	inconclusive: 15.8 µM [cytotoxic, single point]
CC(=O)c1ccc(NC(=O)CSc2ccc3nc(-c4ccccc4)cn3n2)cc1	inconclusive: 14.1 µM [cytotoxic, partial curve]
COc1ccc(NC(=O)c2cc3c(=O)n(Cc4ccco4)ccc3nc2C)c(OC)c1	inactive
COc1ccccc1Nc1c2c(nc3ccc(NC(=O)c4ccc(OC)c(OC)c4)cc13)CCCC2	inconclusive: 12.6 µM [cytotoxic, single point]
Cc1cc(-c2nc3ncccc3o2)ccc1N	inconclusive: 12.6 µM [cytotoxic, partial curve]
COc1nc(Nc2nc3ccccc3c(=O)[nH]2)nc2ccc(C)cc12	inactive
CCCn1cc(S(=O)(=O)c2ccccc2)c(=O)c2cc(F)c(N3CCCCCC3)cc21	inactive
FC(F)(F)c1ccc(N2CCOCC2)c(Nc2nc3ccccc3n3cnnc23)c1	inconclusive: 15.8 µM [cytotoxic, partial curve, poor fit]
Cc1cc(NC(=O)CSc2ccc(-c3nc4cc(C)c(C)cc4[nH]3)cn2)no1	inconclusive: 1.58 µM [cytotoxic, full curve, poor fit]
O=C(Cn1cnc2ccccc2c1=O)c1ccc2c(c1)OCCO2	inconclusive: 12.6 µM [cytotoxic, partial curve]
CC1CCn2c(nc3cc(C(=O)NCCc4ccccc4)ccc32)C1 (stereo not given)	active: 15.8 µM
CCOC(=O)c1nnn(-c2nonc2N)c1CN(C)C1CCCCC1	inconclusive: 0.126 µM [cytotoxic, full curve, poor fit]
N=C(N)SCCc1ccc(OCc2ccc([N+](=O)[O-])cc2)cc1	inconclusive: 31.6 µM [cytotoxic, single point]
CCOc1ccccc1C(=O)Nc1cc(-c2nc3cccnc3s2)ccc1C	inconclusive: 10 µM [cytotoxic, partial curve]
COc1ccc(Nc2oc(-c3ccc(COc4ccccc4)o3)nc2C#N)cc1	inconclusive: 35.5 µM [cytotoxic, single point]
CCCCN(Cc1ccco1)C(=O)c1cc2c(s1)-c1c(C)cccc1OC2	inconclusive: 35.5 µM [cytotoxic, single point]
COc1ccc(NC(=O)CSc2nc3nc(C)cc(C)n3n2)cc1OC	inactive
COc1ccc(OC)c(N(CC(=O)Nc2cccnc2)S(=O)(=O)c2ccc(OC)c(OC)c2)c1	inactive
Clc1ccc(-n2ncc3c(NCC4CCCO4)ncnc32)cc1 (stereo not given)	inconclusive: 12.6 µM [cytotoxic, partial curve]
Cc1ccc(OCCN2CCN(CC(O)Cn3c4ccccc4c4ccccc43)CC2)cc1 (stereo not given)	inconclusive: 35.5 µM [cytotoxic, single point]
CC1=C(C(=O)NCc2ccc(C)cc2)C2(CCCCC2)OC1=O	inactive
CCN1c2ccccc2-c2nc(SCC(=O)Nc3c(C)cc(C)cc3C)ncc2S1(=O)=O	inactive
CC(O)/C=C/c1ccc2ccccc2n1 (stereo not given)	active: 25.1 µM

SMILES	Potency
CC(NC(=O)c1cccc(NC(=O)c2nsc3ccccc23)c1)c1ccccc1 (stereo not given)	inconclusive: 11.2 µM [cytotoxic, partial curve, poor fit]
Cc1ccc(-c2cc(C(=O)Nc3c(C#N)cnn3C)no2)cc1	inconclusive: 12.6 µM [cytotoxic, partial curve]
Cc1ccc(C)c(N2CCN(C(=O)CCCCCn3c(=O)[nH]c4ccccc4c3=O)CC2)c1	inconclusive: 31.6 µM [cytotoxic, single point]
CCOc1ccc(-c2cc(C(=O)N3CCN(c4cccc(C)c4)C(C)C3)c3ccccc3n2)cc1 (stereo not given)	inconclusive: 12.6 µM [cytotoxic, single point]
O=C(CCS(=O)(=O)c1nc(-c2ccc3c(c2)OCO3)cc(C(F)(F)F)n1)Nc1ccc(F)c(Cl)c1	inconclusive: 25.1 µM [cytotoxic, single point]
c1ccc2[nH]c(SCc3ccc(-c4nnco4)cc3)nc2c1	inconclusive: 12.6 µM [cytotoxic, partial curve]
O=C(CCCc1ccccc1)N1CCc2ccccc21	inconclusive: 15.8 µM [cytotoxic, single point]
Cc1cccc(-c2nc(CCNC(=O)c3ccccc3Br)cs2)c1	inactive
COc1ccc(NC(=O)CSc2nnc3scc(-c4ccc(Cl)cc4)n23)cc1	inconclusive: 20 µM [cytotoxic, single point]
CCN(CC)S(=O)(=O)c1cc(C(=O)Nc2ccccc2C(=O)O)ccc1OC	active: 12.6 µM
O=C(Nc1noc2ccccc12)c1c(F)cccc1F	inconclusive: 10 µM [cytotoxic, partial curve]
Cc1ccc2nc(-c3ccc(NC(=O)C(F)(F)F)cc3)sc2c1	active: 3.16 µM
Cc1[nH]c2ccccc2c1C(O)CN1CCN(c2cccc(C(F)(F)F)c2)CC1 (stereo not given)	inconclusive: 25.1 µM [cytotoxic, single point]
CCCN1C(=O)c2ccccc2NC1c1cc(OC)c(OC)c(OC)c1 (stereo not given)	inconclusive: 0.158 µM [cytotoxic, full curve, poor fit]
CCOc1ccc(C(=O)NCc2cccs2)cc1	inactive
CC(=O)Nc1cccc(Cn2cccn2)c1	inactive
Nc1nc(Cl)nc2c1ncn2[C@H]1C[C@H](O)[C@@H](CO)O1	inconclusive: 25.1 µM [cytotoxic, single point]
O=C(/C=C\c1ccc(O)c(O)c1)OCCc1ccccc1	inconclusive: 31.6 µM [cytotoxic, single point]
CCCc1cc(=O)n2[nH]c(-c3ccccc3)cc2n1	inconclusive: 12.6 µM [cytotoxic, partial curve]
Cc1nn(-c2ccc(C(=O)O)cc2)c(N)c1-c1ccccc1	active: 7.94 µM
C=C1C(=O)O[C@@H]2[C@@H]1CC/C(C)=C\CC[C@@]1(C)O[C@H]21	active: 6.31 µM
CCOC(=O)COc1ccc(S(=O)(=O)NCc2cccnc2)cc1	inactive
CC1CCCN(c2ncnc3c2cnn3-c2ccc(F)cc2)C1 (stereo not given)	active: 2 µM
COc1cccc(-c2nccc(NCc3cccs3)n2)c1	inconclusive: 12.6 µM [cytotoxic, partial curve]

SMILES	Potency
CC(=O)Nc1cccc(NC(=O)CSc2ncc(-c3ccc(Cl)cc3)n2Cc2ccco2)c1	inconclusive: 31.6 µM [cytotoxic, single point]
CC(C)(C)c1ccc(-c2nc(SCCOc3ccc(Cl)cc3)n3[nH]c(=O)cc3n2)cc1	inconclusive: 31.6 µM [cytotoxic, single point]
COc1ccc2nc(NC(=O)c3nc(S(=O)(=O)Cc4ccccc4F)ncc3Cl)sc2c1	inconclusive: 15.8 µM [cytotoxic, single point]
COc1cc(C2Nn3c(nnc3-c3ccccc3OC)S2)ccc1O (stereo not given)	inactive
O=C(Nc1ccc2c(c1)OCCO2)NC1CCCCC1	active: 7.94 µM
NCc1ccc(-c2nc3ccccc3o2)cc1	inconclusive: 3.16 µM [cytotoxic, full curve, poor fit]
CC1CCN(C(=O)CSc2c3c(nc4ccc(Cl)cc24)CCCC3)CC1	inconclusive: 31.6 µM [cytotoxic, single point]
Cc1cccc(NC(=O)CSc2nc3ccccc3nc2N2CCC(C)CC2)c1	inconclusive: 1.26 µM [cytotoxic, full curve]
COc1ccc(S(=O)(=O)N(CC(=O)Nc2ccc(F)c(Cl)c2)c2ccc(C)cc2)cc1OC	inconclusive: 0.0079 µM [cytotoxic, full curve, poor fit]
COc1cccc(C(=O)Nc2ccc(NC(=O)C3CC3)cn2)c1	inconclusive: 10 µM [cytotoxic, partial curve]
COc1ccc(-c2nc(SCC(=O)Nc3ccccc3)c(-c3ccc(F)cc3)[nH]2)cc1OC	inconclusive: 20 µM [cytotoxic, single point]
COc1cc(NC(=O)CSc2nc(-c3cccs3)cc(C(F)(F)F)n2)cc(OC)c1OC	inactive
CCOC(=O)c1c(NC(=O)c2ccc(S(=O)(=O)N3CCC(C)CC3)cc2)sc2c1CCN(C)C2	inconclusive: 31.6 µM [cytotoxic, single point]
Cc1cccc(OCC(=O)N2CCC(c3ccccc3)C2)c1 (stereo not given)	inconclusive: 12.6 µM [cytotoxic, partial curve]
Cc1cnc(CNc2nc(-c3ccc(C(=O)N(C)C)cc3)nc3ccccc23)cn1	inconclusive: 15.8 µM [cytotoxic, single point]
Cc1ccccc1-c1noc(-c2cc3ccccc3oc2=O)n1	inconclusive: 12.6 µM [cytotoxic, partial curve]
COc1ccccc1-c1noc(-c2ccccc2)n1	inconclusive: 10 µM [cytotoxic, partial curve]
C=CCSc1nnc(-c2ccc(Cl)cc2Cl)o1	inconclusive: 12.6 µM [cytotoxic, partial curve]
CCOC(=O)C1CCCN(C(=O)c2cccc(NC(=O)c3nsc4ccccc34)c2)C1 (stereo not given)	inconclusive: 31.6 µM [cytotoxic, single point]
Cn1c(=O)c(C(=O)Nc2ncccn2)c(O)c2ccccc21	active: 12.6 µM
COc1cccc(-c2cncnc2NCc2ccc(OC)cc2OC)c1	inactive
CCN1C(=O)c2cccc3c(S(=O)(=O)NCc4ccco4)ccc1c23	inconclusive: 31.6 µM [cytotoxic, single point]
